{"source": "PubChem BioAssay AID602393", "about": "(Broad Institute, 2012)", "note": "About 7,000 (2%) of roughly 350,000 compounds were called active. Inconclusive results, whose numbers are uncertain, are shown with a selection of clear calls. Rule as the data show it: active = activation above about 40%; inconclusive = no clear call, values can overlap the other calls; inactive = below that."}
{"experiment": "raisers of Bmi1 knock-in reporter signal – mouse ES cells, Bmi1 luciferase knock-in, single point, esBAF inhibitor project, primary screen (AID 602393);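 also: 0% = median of the plate's neutral control wells and 100% = double that signal; a rise in the Bmi1 reporter signal indicates esBAF inhibition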", "conditions": "24 h, at 12.5 µM, active compounds read high, 100% = twice the neutral-well signal"}
{"molecule": "CC(C)(C)C(=O)Nc1ccc(C(=O)COC(=O)C2CC2)cc1", "reporter increase": "active: 59.8%"}
{"molecule": "Cc1ccc(NC(=S)NC(=O)C2CCC2)cc1C", "reporter increase": "active: 84%"}
{"molecule": "O=C(COC(=O)c1ccc(O)cc1)Nc1ccc2c(c1)OCCO2", "reporter increase": "inconclusive: 40.6%"}
{"molecule": "COc1ccc(NCCc2ccccn2)cc1", "reporter increase": "inconclusive: 43.4%"}
{"molecule": "CCS(=O)(=O)n1nc(-c2ccccc2)cc1N", "reporter increase": "inactive: -1.28%"}
{"molecule": "CCc1ccc(NC(=O)c2ccc3c(c2)C(=O)N(CCOC)C3Nc2ccc(CC)cc2)cc1", "note": "(configuration not stated)", "reporter increase": "inconclusive: 41.5%"}
{"molecule": "COc1ccc2nc(Nc3sc4c(c3C(N)=O)CCCC4)sc2c1", "reporter increase": "inconclusive: 40%"}
{"molecule": "O=C(Nc1ccccc1F)NC1CC1", "reporter increase": "inconclusive: 41.1%"}
{"molecule": "CCOC(=O)Nc1nc2ccccc2s1", "reporter increase": "inconclusive: 69.7%"}
{"molecule": "CNc1cnc(-c2ccsc2)cn1", "reporter increase": "inconclusive: 42.8%"}
{"molecule": "Cc1ccc(Nc2nnc(SCc3ccccc3)s2)cc1", "reporter increase": "inconclusive: 40.7%"}
{"molecule": "O=C(OCC(=O)c1ccccc1Cl)C1=NN(c2ccccc2)C(=O)CC1", "reporter increase": "inconclusive: 45.1%"}
{"molecule": "COc1ccc(NC(=O)Nc2cccc3c2O[C@@H](CN(C)Cc2ccc(Cl)c(Cl)c2)[C@H](C)CN([C@H](C)CO)C3=O)cc1", "reporter increase": "inactive: -2.49%"}
{"molecule": "Cc1cccc(OCC(=O)Nc2ccc(C(=O)c3ccc(C(=O)O)cc3)cc2)c1", "reporter increase": "inconclusive: 42.9%"}
{"molecule": "Cc1nnc(NC(=O)Nc2cccc(Cl)c2)s1", "reporter increase": "inconclusive: 40.1%"}
{"molecule": "COc1ccc(-c2coc3cc(O[C@@H]4O[C@H](CO)[C@@H](O)[C@H](O)[C@H]4O)c(OC)cc3c2=O)cc1", "reporter increase": "active: 46.6%"}
{"molecule": "Cc1cc(C(=O)N/N=C/c2cccc(Cl)c2Cl)no1", "reporter increase": "inconclusive: 45.2%"}
{"molecule": "CC1Cc2cc(-c3csc(NC(=O)Cc4ccccc4)n3)ccc2N1S(C)(=O)=O", "note": "(configuration not stated)", "reporter increase": "inconclusive: 40.6%"}
{"molecule": "Cc1sc(NC(=S)NC(=O)c2ccco2)c(C(N)=O)c1C", "reporter increase": "active: 48.6%"}
{"molecule": "Cc1ccccc1OCc1nc2ccccc2n1C", "reporter increase": "inconclusive: 47%"}
{"molecule": "COc1ccc(-n2cnc3cc(NS(=O)(=O)c4ccccc4)ccc32)cc1", "reporter increase": "inconclusive: 43.4%"}
{"molecule": "O=C(C[C@H]1C[C@H]2c3cc(NC(=O)CC4CC4)ccc3O[C@H]2[C@@H](CO)O1)NCc1ccncc1", "reporter increase": "inactive: 1.09%"}
{"molecule": "CCc1ccc(N=C2N=C(N)c3ccccc32)cc1", "reporter increase": "inconclusive: 44%"}
{"molecule": "O=C(C[C@H]1C=C[C@@H](NS(=O)(=O)c2ccc(F)cc2)[C@@H](CO)O1)N1CCN(c2ccccc2)CC1", "reporter increase": "inactive: -4.83%"}
{"molecule": "CC(=O)N/N=C/c1ccccc1OCCOc1cccc(C)c1", "reporter increase": "inconclusive: 42.1%"}
{"molecule": "COC(=O)c1ccccc1OCC(=O)NC1CCCCC1", "reporter increase": "inconclusive: 40.2%"}
{"molecule": "COc1ccccc1CC(=O)Nc1ccc(-c2nnc(-c3ccco3)o2)cc1", "reporter increase": "inconclusive: 40.7%"}
{"molecule": "Nc1c(-c2ccc(Cl)cc2)cnc2c(-c3ccc(F)cc3)cnn12", "reporter increase": "inconclusive: 70%"}
{"molecule": "COc1ccc(NC(=O)Nc2ccc(C(C)C)cc2)cc1", "reporter increase": "inconclusive: 41.1%"}
{"molecule": "C[C@H]1CN([C@@H](C)CO)C(=O)Cc2cc(NC(=O)Nc3ccc4c(c3)OCO4)ccc2O[C@H]1CN(C)S(=O)(=O)c1cccs1", "reporter increase": "inactive: 7.81%"}
{"molecule": "CO[C@H]1CN(C)C(=O)c2ccc(NS(C)(=O)=O)cc2OC[C@@H](C)N(CCC(F)(F)F)C[C@H]1C", "reporter increase": "inactive: -1.19%"}
{"molecule": "COc1cccc(CNS(=O)(=O)c2c(C)[nH]c(C)c2C(=O)N2CCCCC2)c1", "reporter increase": "inactive: 1.22%"}
{"molecule": "Cn1c(C(=O)N/N=C/c2ccccc2)cc2ccccc21", "reporter increase": "active: 63.8%"}
{"molecule": "O=C(O)CC1SC(=O)N(Cc2ccccc2)C1=O", "note": "(configuration not stated)", "reporter increase": "inactive: 4.35%"}
{"molecule": "COc1cccc(C=O)c1OCCCOc1cccc2cccnc12", "reporter increase": "inconclusive: 41.1%"}
{"molecule": "CC(=O)CCc1c(C)c2cc(C)ccc2[nH]c1=O", "reporter increase": "inconclusive: 42.3%"}
{"molecule": "O=C(Nn1cnc2ccccc2c1=O)c1ccc(Br)cc1", "reporter increase": "inconclusive: 57.1%"}
{"molecule": "N#Cc1c(N2CCSCC2)nsc1-c1ccccc1Cl", "reporter increase": "inconclusive: 47.2%"}
{"molecule": "CCC(=O)OC1(C)C(=O)C2=COC(c3ccc(OC)cc3)=CC2=C(Br)C1=O", "note": "(configuration not stated)", "reporter increase": "inconclusive: 42.2%"}
{"molecule": "CCOCc1cnc(C)nc1NCC(=O)c1c(C)[nH]c2cc(C)ccc12", "reporter increase": "inactive: 12.1%"}
{"molecule": "Cc1ccc(N2C(=O)c3ccccc3C2Nc2ccc(S(=O)(=O)N3CCOCC3)cc2)nc1", "note": "(configuration not stated)", "reporter increase": "inconclusive: 40.2%"}
{"molecule": "COc1ccc(NC2CC(=O)N(c3ccccc3)C2=O)cc1", "note": "(configuration not stated)", "reporter increase": "inconclusive: 43.2%"}
{"molecule": "CC(=O)N/N=C\\c1cccc(OC/C=C/c2ccccc2)c1", "reporter increase": "inactive: 37.6%"}
{"molecule": "Cn1c(SCc2nc3ccccc3s2)nnc1-c1cccs1", "reporter increase": "inconclusive: 40.6%"}
{"molecule": "C/C(=N/Nc1ccccc1C(=O)O)c1cccs1", "reporter increase": "inconclusive: 58.7%"}
{"molecule": "COc1ccc(/C=C2/SC(=O)N(CCNC(=O)CC(NC(C)=O)c3ccccc3)C2=O)cc1", "note": "(configuration not stated)", "reporter increase": "inconclusive: 46%"}
{"molecule": "Cc1nc(NC(=S)NC(=O)c2ccccc2)sc1C", "reporter increase": "active: 44.8%"}
{"molecule": "COc1ccc(/C=C2\\SC(N3CCCCC3)=NC2=O)cc1", "reporter increase": "inconclusive: 41.2%"}
{"molecule": "COc1cccc(NC(=O)Nc2cccc(C)n2)c1", "reporter increase": "inconclusive: 54.1%"}
{"molecule": "Nc1cccc(Oc2ccc3c(c2)C(=O)N(CC2CCCO2)C3=O)c1", "note": "(configuration not stated)", "reporter increase": "active: 49.7%"}
{"molecule": "CCC1CCCCN1CC(=O)Nc1ccc2c(c1)OCCO2", "note": "(configuration not stated)", "reporter increase": "inconclusive: 42.4%"}
{"molecule": "COc1ccccc1CNC(=O)N1CCN(c2ccccc2C)CC1", "reporter increase": "inactive: 7.9%"}
{"molecule": "Cc1ccc(NC(=O)COC(=O)c2ccc3ncsc3c2)c(C)c1", "reporter increase": "inactive: 14.8%"}
{"molecule": "CCCCNC(=S)Nc1ccc2nc(N3CCN(CC)CC3)cc(C)c2c1", "reporter increase": "inactive: -9.13%"}
{"molecule": "O=C(NC1Cc2ccccc2C1)[C@H]1[C@H](CO)[C@H]2Cn3c(cccc3=O)[C@@H]1N2Cc1ccccc1F", "reporter increase": "inactive: 1.8%"}
{"molecule": "COC(=O)Cc1ccc(NC(=O)c2cccs2)cc1", "reporter increase": "active: 48.8%"}
{"molecule": "CCOc1ccc(NC(=O)c2ccc(OC)cc2)cc1", "reporter increase": "inconclusive: 44.2%"}
{"molecule": "C[C@@H]1CN([C@@H](C)CO)C(=O)c2cc(NS(=O)(=O)c3cccs3)ccc2O[C@@H]1CN(C)S(C)(=O)=O", "reporter increase": "inactive: -0.748%"}
{"molecule": "COc1cc(/C=C(\\C#N)c2nc3c(s2)CC(C)CC3)ccc1O", "note": "(configuration not stated)", "reporter increase": "inconclusive: 41.9%"}
{"molecule": "CCOC(=O)c1c(NC(=O)c2cc(C)oc2C)sc(C(=O)Nc2ccc(Cl)cc2)c1C", "reporter increase": "inconclusive: 40.7%"}
{"molecule": "O=C1CC(c2ccco2)Sc2nc3ccccc3n21", "note": "(configuration not stated)", "reporter increase": "inactive: 0.268%"}
{"molecule": "CO[C@@H]1CN(C)C(=O)c2cc(NC(=O)Nc3ccc4c(c3)OCO4)ccc2OC[C@H](C)NC[C@@H]1C", "reporter increase": "inconclusive: 43.4%"}
{"molecule": "CC(=O)Nc1cc(-c2ccc(Cl)cc2)[nH]n1", "reporter increase": "active: 73.6%"}
{"molecule": "CC(C)(C)C(=O)c1cnc(Nc2ccccc2Cl)s1", "reporter increase": "inconclusive: 40.6%"}
{"molecule": "Cc1ccc(C(=O)CSc2ncnc3ccccc23)o1", "reporter increase": "inconclusive: 42.8%"}
{"molecule": "C[C@H]1CN([C@@H](C)CO)C(=O)c2cc(C#CCN(C)C)cnc2O[C@H]1CN(C)Cc1ccccc1", "reporter increase": "inactive: 4.36%"}
{"molecule": "O=C(CSc1nnc(-c2cccc(F)c2)o1)N1CCCC1", "reporter increase": "active: 44%"}
{"molecule": "Cn1ccc2cc(NC(=O)Nc3cccnc3)ccc21", "reporter increase": "active: 55.8%"}
{"molecule": "O=C(O)C(=O)/C(=C\\c1ccccc1)c1ccc2ccccc2n1", "reporter increase": "inactive: 37.1%"}
{"molecule": "CC(=O)NC(c1ccc(F)c(F)c1)c1nc(-c2cccc(C(=O)O)c2)cs1", "note": "(configuration not stated)", "reporter increase": "inconclusive: 44.9%"}
{"molecule": "Nc1c(C(=O)Nc2ccc3c(c2)OCCO3)nnn1Cc1ccc(F)cc1", "reporter increase": "active: 95.8%"}
{"molecule": "N/C(=N\\OC(=O)c1cccs1)c1cccc(Br)c1", "reporter increase": "inactive: 21.9%"}
{"molecule": "CS(=O)(=O)N1CCCCC1c1cc(C(=O)Nc2ccccc2)no1", "note": "(configuration not stated)", "reporter increase": "inconclusive: 44.2%"}
{"molecule": "CCOC(=O)c1c(NC(C)=O)sc2c(O)c(CN3CCN(CC)CC3)ccc12", "reporter increase": "inactive: 2.34%"}
{"molecule": "Cc1ccc(COc2ccc(-c3nnco3)cc2)cc1", "reporter increase": "inconclusive: 27.4%"}
{"molecule": "CCc1ccc(OCc2ccc(C(=O)OC)o2)cc1", "reporter increase": "inconclusive: 58.9%"}
{"molecule": "COc1ccccc1-c1cnc2c(c1)C(=O)N([C@@H](C)CO)C[C@@H](C)[C@H](CN(C)C(=O)c1ccncc1)O2", "reporter increase": "inactive: -4.75%"}
{"molecule": "c1cc(-c2ccc(N3CCOCC3)cc2)n2ccnc2c1", "reporter increase": "active: 57.1%"}
{"molecule": "Cc1ccc(C(=O)Cn2ncsc2=N)cc1", "reporter increase": "inconclusive: 48.7%"}
{"molecule": "CCn1c(SCc2nc3ccccc3[nH]2)nnc1-c1cccnc1", "reporter increase": "inactive: -1.55%"}
{"molecule": "Cc1ccnc(NC(=O)c2ccc(N3C(=O)CCC3=O)cc2)c1", "reporter increase": "inconclusive: 41.4%"}
{"molecule": "O=C1c2ccccc2S(=O)(=O)N1CC1CC(c2ccccc2)=NO1", "note": "(configuration not stated)", "reporter increase": "inconclusive: 47.4%"}
{"molecule": "CC1CCc2c(C(=O)NCC3CCCO3)csc2C1", "note": "(configuration not stated)", "reporter increase": "inconclusive: 41.2%"}
{"molecule": "CCOC(=O)c1ccc(NC(=O)C2C3CCCCC32)cc1", "note": "(configuration not stated)", "reporter increase": "inconclusive: 32.4%"}
{"molecule": "C[C@H](CO)N1C[C@H](C)[C@H](CN(C)C(=O)C2CCCCC2)Oc2cc(C#CC(C)(C)O)ccc2S1(=O)=O", "reporter increase": "inactive: 1.58%"}
{"molecule": "CCc1ccc(NC(=O)c2cc(C)no2)cc1", "reporter increase": "active: 55.5%"}
{"molecule": "CCn1c(-c2cc(-c3ccc(OC(C)C)cc3)nc3ccccc23)n[nH]c1=S", "reporter increase": "inconclusive: 44.3%"}
{"molecule": "O=c1c(-c2ccccc2)coc2cc(O)ccc12", "reporter increase": "inconclusive: 42.5%"}
{"molecule": "Fc1ccc(NCc2cn3ccccc3n2)cc1", "reporter increase": "inconclusive: 40.1%"}
{"molecule": "COCC(=O)N[C@@H]1C=C[C@@H](CC(=O)NCc2ccccc2OC)O[C@@H]1CO", "reporter increase": "inactive: 0.0355%"}
{"molecule": "Cc1noc(C)c1S(=O)(=O)Nc1cccc2c1O[C@H](CN(C)CC1CCCCC1)[C@H](C)CN([C@H](C)CO)C2=O", "reporter increase": "inactive: -1.13%"}
{"molecule": "NC(=O)C1CCN(C(=O)c2cc3c(s2)CCCCC3)CC1", "reporter increase": "inconclusive: 55.3%"}
